The list shows a part of the results. At the low end of the ranking the order means little.

The experiment deals with T1, GST-Rok (full length) (UniProt O34857).
T1 sequence: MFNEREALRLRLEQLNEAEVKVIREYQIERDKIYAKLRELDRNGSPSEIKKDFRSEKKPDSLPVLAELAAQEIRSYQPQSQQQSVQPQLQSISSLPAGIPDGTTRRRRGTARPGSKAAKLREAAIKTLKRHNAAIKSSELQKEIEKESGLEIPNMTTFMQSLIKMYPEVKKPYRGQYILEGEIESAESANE
Description: protein binding microarray.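 Note: rank score from −0.5 (least bound) to 0.5 (best bound).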 To be noted: Rok is a gene silencer of Bacillus subtilis; high values mean tight binding; most listed sequences are background and not binding sites; double strand, one strand shown.
Turning to CTCATCGA, the binding signal is -0.105 E-score.

Turning to CAGTGTGA, the binding signal was -0.0699 E-score.

Regarding AAGCATTC, the binding signal was -0.0228 E-score.

For CGATTGAG, the binding signal was -0.101 E-score.

CAACGGGA showed a binding signal of 0.123 E-score.

For AGAGGTCG, the binding signal was -0.15 E-score.

Sequence TACATGTA returned a binding signal of 0.339 E-score.

In turn, CTTTGATA registered a binding signal of 0.204 E-score.

Regarding GGCCGCAC, the binding signal is -0.38 E-score.

As for TGGCTCAA, the binding signal is -0.0301 E-score.

AAATTACC displayed a binding signal of 0.347 E-score.

AATGTGTG showed a binding signal of 0.109 E-score.

Take CTTGAGCA: the binding signal is -0.235 E-score.

In the case of ATCTATCC, the binding signal turned out to be 0.128 E-score.

ATTCCGTA gave a binding signal of 0.309 E-score.

Regarding CCGCGTTA, the binding signal is -0.126 E-score.

For the sequence GTCTTTAA, the binding signal is -0.0393 E-score.

Consider AGGGTGTG, for which the binding signal is -0.159 E-score.

Regarding CTCCGAGA, the binding signal is -0.1 E-score.

For the sequence AGTCCTCG, the binding signal was -0.106 E-score.

Consider CCGCCTAA, for which the binding signal is -0.174 E-score.

For the sequence ACTTCCCC, the binding signal was -0.134 E-score.

ATACTTAG had a binding signal of 0.18 E-score.

In turn, AAACCTGT gave a binding signal of 0.0297 E-score.

CCCCATCA: the binding signal is -0.243 E-score.

On to TTCATGAA, for which the binding signal was -0.0905 E-score.

For GACGCAGC, the binding signal was -0.273 E-score.

Sequence CATGTCAG had a binding signal of 0.061 E-score.

Turning to CAGTATGG, the binding signal is -0.0566 E-score.

Regarding CAAAAAAG, the binding signal was -0.124 E-score.

In turn, TATTGCCA registered a binding signal of 0.196 E-score.

Regarding CATTCGAG, the binding signal was -0.109 E-score.

Regarding CTATCAAG, the binding signal was determined as 0.126 E-score.

In turn, ATCTTACG displayed a binding signal of 0.21 E-score.

ATTTCGCA yielded a binding signal of 0.252 E-score.

Turning to CGAAGTGC, the binding signal is -0.268 E-score.

With AGAATACG, the binding signal amounted to 0.0996 E-score.

Regarding CCTGCAAA, the binding signal was -0.218 E-score.

Consider CGTAACTC, for which the binding signal is -0.000639 E-score.

For CCGGTCTC, the binding signal is -0.121 E-score.

For AAGAATAT, the binding signal was 0.173 E-score.

GGTCGCAA gave a binding signal of 0.0661 E-score.

Consider AAATCCAT, for which the binding signal worked out at 0.193 E-score.

The sequence ATAACTTG gave a binding signal of 0.289 E-score.

As to CCGACCTC, the binding signal was -0.334 E-score.

The sequence CGAAATTA registered a binding signal of 0.269 E-score.

On to CGGGGGAG, for which the binding signal was -0.407 E-score.

As to CATAGCAC, the binding signal is -0.15 E-score.

Take ACTATAAC: the binding signal is 0.214 E-score.

AATAATGT: the binding signal came out at 0.222 E-score.

As for CTAAAATC, the binding signal came to 0.289 E-score.

The sequence TTCGCCAA gave a binding signal of 0.0471 E-score.

Consider GCGTTGCC, for which the binding signal is -0.301 E-score.

The sequence GATTGCGA yielded a binding signal of 0.0724 E-score.

As for CTGAGGCA, the binding signal is -0.19 E-score.

Sequence TATTACCA displayed a binding signal of 0.232 E-score.

In the case of GATTTGAC, the binding signal is -0.0537 E-score.

As for AGTGGGCA, the binding signal was -0.0765 E-score.

With GCTGAACA, the binding signal was -0.00235 E-score.

In the case of CAAAGCCA, the binding signal was -0.294 E-score.

For CCATGGTC, the binding signal was -0.19 E-score.

In the case of GATCTTCC, the binding signal was -0.105 E-score.

With AGAGTGTC, the binding signal was -0.116 E-score.

In turn, GGTTTGTA showed a binding signal of 0.217 E-score.

CGAGGCAG: the binding signal was -0.166 E-score.

In the case of CCCTAGGA, the binding signal is -0.299 E-score.

In turn, GGCTATAC yielded a binding signal of 0.027 E-score.

The sequence GTAAATAC had a binding signal of 0.352 E-score.

On to GCGAAACA, for which the binding signal was -0.073 E-score.

As for CACTCCTG, the binding signal is -0.271 E-score.

Regarding ATTCATTG, the binding signal came out at 0.186 E-score.

GGTGCCGA: the binding signal is -0.248 E-score.

Consider ACATGGAC, for which the binding signal is -0.0136 E-score.

Regarding AACTGTCC, the binding signal came to 0.0205 E-score.

Regarding AGAGCCTA, the binding signal is -0.00183 E-score.

Consider ACAACACT, for which the binding signal came to 0.144 E-score.

With GCCGGATA, the binding signal came out at 0.0651 E-score.

On to GTAGAGTA, for which the binding signal was 0.227 E-score.

As to CTTGCAAG, the binding signal is -0.0195 E-score.

Sequence ATTCTCCA returned a binding signal of 0.209 E-score.

In the case of ATATTCGG, the binding signal was -0.00515 E-score.

As to GCCGACCA, the binding signal was -0.178 E-score.

ATGACTCG: the binding signal is 0.00282 E-score.

Consider ATCTCCTC, for which the binding signal is -0.0375 E-score.

On to CGCCCAAA, for which the binding signal was -0.124 E-score.

On to GGGCATTA, for which the binding signal was -0.3 E-score.

As for ACACGGGC, the binding signal was -0.0912 E-score.

With GCCTGCGA, the binding signal is -0.168 E-score.

For the sequence GGGCGGCA, the binding signal was -0.295 E-score.

On to GAAGCTAA, for which the binding signal amounted to 0.0533 E-score.

Turning to ACCATGCG, the binding signal is -0.0629 E-score.

Regarding AGAGGCTG, the binding signal was -0.273 E-score.

Sequence CATGATAC registered a binding signal of 0.144 E-score.

Turning to GCGTAGGA, the binding signal is -0.034 E-score.

As for CCTTTTCG, the binding signal is 0.147 E-score.

Turning to CAAACTCG, the binding signal was -0.0411 E-score.

ATTTATCA registered a binding signal of 0.193 E-score.

For the sequence GGATGTCA, the binding signal is -0.148 E-score.

In turn, GGTGGCTA registered a binding signal of 0.00926 E-score.

In turn, CGGCCATA had a binding signal of 0.0118 E-score.

For the sequence AACCGGGA, the binding signal was -0.296 E-score.

On to CTTGTGGC, for which the binding signal is -0.0517 E-score.

Turning to GATTCGTA, the binding signal is 0.0981 E-score.

On to ATGGGGAG, for which the binding signal is -0.359 E-score.

For CTATGGGA, the binding signal is -0.103 E-score.

Turning to AGCCTTTA, the binding signal was -0.0665 E-score.

With GCGTTGGA, the binding signal is -0.179 E-score.

CACATGTA: the binding signal was 0.284 E-score.

As for AAGAGACC, the binding signal is -0.105 E-score.

Take ATTTGCAA: the binding signal came out at 0.0712 E-score.

The sequence GTTTTCAA yielded a binding signal of 0.0595 E-score.

Take ACGTCCCG: the binding signal was -0.0683 E-score.

Turning to GGTAAAAC, the binding signal came to 0.192 E-score.

In turn, CACGTAAC registered a binding signal of 0.131 E-score.

Regarding AGAGTTTC, the binding signal was -0.0683 E-score.

For the sequence TGGATTAA, the binding signal was determined as 0.116 E-score.

For the sequence CCCTGTCA, the binding signal was -0.175 E-score.

Take GAGGTGAA: the binding signal is -0.212 E-score.

In the case of CGGCGTCC, the binding signal was -0.181 E-score.

For the sequence ACGAGGCG, the binding signal is -0.125 E-score.

Take ACGCGCGA: the binding signal was found to be 0.0153 E-score.

Regarding CCCGTAGG, the binding signal was -0.304 E-score.

On to AACCCGGG, for which the binding signal was -0.226 E-score.

Take AAACAGCT: the binding signal turned out to be 0.0473 E-score.

ATGAAAAA: the binding signal is -0.185 E-score.

As to CCCCGGGA, the binding signal was -0.318 E-score.

As for GGGCAGGA, the binding signal is -0.31 E-score.

ACTTGGGG: the binding signal was -0.063 E-score.

As for ACATTCCC, the binding signal was -0.038 E-score.

With AAGCCTGG, the binding signal was -0.233 E-score.

On to CAAGCAGC, for which the binding signal was -0.0674 E-score.

In turn, AGACAAAT returned a binding signal of 0.0067 E-score.

Take GGCACAAC: the binding signal is -0.164 E-score.

In the case of GGACCACA, the binding signal is -0.0732 E-score.

The sequence AAAGGCAT registered a binding signal of 0.00646 E-score.

As for GCTCTCCC, the binding signal was -0.192 E-score.

ATGTCACA displayed a binding signal of 0.0735 E-score.

ATTAATCG displayed a binding signal of 0.129 E-score.

Consider ACGTATAG, for which the binding signal was 0.146 E-score.

Turning to CTCCAATC, the binding signal was -0.0649 E-score.

Take ACTTATGA: the binding signal amounted to 0.126 E-score.

In the case of AATTTAGA, the binding signal came to 0.155 E-score.

With ACGTTCAT, the binding signal was -0.0328 E-score.

As to GCCCACCC, the binding signal was -0.272 E-score.

In the case of CAGGGTAG, the binding signal is -0.0145 E-score.

In the case of ATCAAGAT, the binding signal came to 0.182 E-score.

For AGGCAAGA, the binding signal was -0.274 E-score.

As to AGATTCCG, the binding signal was determined as 0.188 E-score.

For the sequence ACGATGAT, the binding signal was 0.0193 E-score.

For ACGAATTC, the binding signal was found to be 0.137 E-score.

As to AAGTTTAC, the binding signal was -0.0932 E-score.

Regarding ACGATGAA, the binding signal was determined as 0.0343 E-score.

The sequence CAATCGTC displayed a binding signal of 0.0329 E-score.

For GACATGCC, the binding signal amounted to 0.114 E-score.

The sequence AAAGTTAC displayed a binding signal of 0.143 E-score.

In the case of AACTGTAA, the binding signal came out at 0.15 E-score.

Regarding CCGCCAAA, the binding signal was -0.222 E-score.

With CCGTTCAG, the binding signal is -0.0823 E-score.

Consider ACTCCCTC, for which the binding signal was -0.241 E-score.

As to CGATGACG, the binding signal is -0.152 E-score.

As to CTGGGACC, the binding signal was -0.294 E-score.

Consider CCACACAA, for which the binding signal was -0.06 E-score.

For the sequence CGCGAGTC, the binding signal is 0.0206 E-score.

Take ACACATCA: the binding signal was -0.138 E-score.

Regarding CTTCGTAC, the binding signal turned out to be 0.152 E-score.

Take CGGACCAG: the binding signal is -0.111 E-score.

For AACCAAGA, the binding signal is -0.028 E-score.

ATACTGCG displayed a binding signal of 0.0629 E-score.

Consider GGTGCGCA, for which the binding signal is -0.00866 E-score.

With CATAGGGG, the binding signal is -0.27 E-score.

Consider CGTGCTGC, for which the binding signal was -0.148 E-score.

As to ATCAGAGC, the binding signal was -0.105 E-score.

For the origin of these results see paper PMC6212790.
